Measurements published in patent US4826975A, “Fused cycloaliphatic aminoalcohols” (Maggioni-Winthrop S.P.A., priority 1986, dated 1989).

Experiments:
DOCA rats = format: in vivo, rat; details: 15 mg/kg po
Protocol: Changes in blood pressure (mm Hg) before (T=O) and after treatment (2, 4 and 6 hrs) were measured according to the method of tail artery plethysmography reported in "Spontaneously hypertensive rats (SHR), guidelines for breeding, care and use", SHR Conference, 1976, page 11.
The heart rate was also […] (BP Recorder No. 8006 supplied by Basile, Comerio, Italy). The arterial pressure before the treatment was 210±10 mmHg in SHR and 200±10 in DOCA rats.

[1] = test system: phenylephrine (PHE) induced hypertension; format: in vivo, rat; details: 1 mg/kg i.v.
toxic adrenaline doses = experiment: animal or person; format: in vivo, mice; details: Mus musculus, po; 2 hrs before 14.5 mg/kg 1-adrenaline i.p., mortality after 24 hrs; read-out: DP50 (50% protective dose)
[2] = test system: alpha1 -adrenergic receptors; experiment: receptor binding assay, inhibition of ^3 H-Prazosin binding to rat brain membrane
Protocol: (§1) The receptor binding assay for the inhibition of ^3 H-Prazosin, ^3 H-clonidine and ^3 H-spiperone binding to rat brain membrane was carried out according to Greenberg et al., Life Sci. 19, 69, 1976, and U'Prichard et al., Molec. Pharmacol. 13, 454, 1977.
(§2) Data for the tested compounds are reported in Table 3 where the 50% inhibiting concentrations (IC50) of Tibalosine and Urapidil are also given.

[3] = test system: alpha2 -adrenergic receptors; experiment: receptor binding assay, inhibition of ^3 H-clonidine binding to rat brain membrane
Protocol: as §1, §2

[4] = target: T1, serotoninergic 2 (5-HT2) receptors (Rattus norvegicus, UniProt P14842); experiment: receptor binding assay, inhibition of ^3 H-spiperone binding to rat brain membrane; details: for inhibition at 5.4 µM: 5.4 × 10^-6 M; for inhibition at 5.4 µM / inhibition at 0.54 µM: read-out: % Inhibition of the specific binding, ^3 H--Spiperone (5-HI2); for inhibition at 0.54 µM: 5.4 × 10^-7 M
T1 construct: from tissue; host or cells: rat brain membrane
T1 sequence (P14842 whole entry): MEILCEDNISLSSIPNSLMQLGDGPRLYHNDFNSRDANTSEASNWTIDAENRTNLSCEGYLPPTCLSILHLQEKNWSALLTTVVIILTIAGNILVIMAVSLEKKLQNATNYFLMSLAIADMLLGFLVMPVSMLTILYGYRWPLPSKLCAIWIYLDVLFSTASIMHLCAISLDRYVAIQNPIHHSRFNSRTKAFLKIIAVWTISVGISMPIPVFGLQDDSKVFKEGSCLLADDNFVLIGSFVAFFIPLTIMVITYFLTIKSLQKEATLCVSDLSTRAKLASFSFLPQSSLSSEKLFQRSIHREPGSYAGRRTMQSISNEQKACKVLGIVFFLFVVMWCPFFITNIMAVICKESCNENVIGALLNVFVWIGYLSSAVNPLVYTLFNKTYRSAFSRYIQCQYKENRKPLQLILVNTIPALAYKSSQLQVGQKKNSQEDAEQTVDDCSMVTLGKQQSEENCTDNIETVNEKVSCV
Protocol: as §1

[5] = oral acute toxicity in male mice; details: mouse, in vivo
Protocol: The oral acute toxicity in male mice of the invention compound is very low. […]; and higher than 2,000 mg/kg for MG 38005, MG 28401, MG 28414 and MG 28427.

SHR = experiment: anti-hypertensive activity in spontaneously hypertensive (SH) rats, tail artery plethysmography; details: for pressure decrease: SH rats; for Max. changes in systolic pressure: SHR, 15 mg/kg po
Normolipemic rats [6] = experiment: hypolipemic activity in normolipemic rats (serum lipids, liver weight); format: in vivo, rat
Protocol: Total cholesterol (CHOL), triglycerides (TG), HDL cholesterol CHOL-HDL) were assayed in serum and the liver was weighed.

gasping time in mice = experiment: anti-hypoxic activity, gasping time after decapitation; format: in vivo; details: 100 mg/kg p.o., pretreatment 45 min.
Protocol: The anti-hypoxic activity was determined according to Yasuda et al., Arch. Int. Pharmacodyn. 233, 136, 1978.
Groups of 10 male mice (21-23 g) were treated orally with vehicle (controls) and the invention compounds. After 45 or 90 minutes the animals were decapitated and the gasping time was determined. Table 6 gives the results obtained after administration of some of the invention compounds which display an activity higher than Suloctidil.

Normolipemic rats [7] = details: rat, in vivo; cited from earlier work
[8] = target: alpha1 -adrenergic receptors; details: literature value; read-out: IC50, ^3 H--Prazosin (α1); cited from earlier work
[9] = target: alpha2 -adrenergic receptors; details: literature value; read-out: IC50, ^3 H--Clonidine (α2); cited from earlier work

Compound | Max. changes in systolic pressure (DOCA rats) [mmHg] | PHE dosis causing a 50 mm Hg increase of the arterial pressure, in comparison with the controls [1] | ED50 (toxic adrenaline doses) [mg/kg] | % Inhibition of the specific binding, ^3 H--Prazosin (α1) ([2]; 5.4 × 10^-6 M) [%] | % Inhibition of the specific binding, ^3 H--Prazosin (α1) ([2]; 5.4 × 10^-7 M) [%] | % Inhibition of the specific binding, ^3 H--Clonidine (α2) ([3]; 5.4 × 10^-6 M) [%] | % Inhibition of the specific binding, ^3 H--Clonidine (α2) ([3]; 5.4 × 10^-7 M) [%] | inhibition at 5.4 µM [4] [%] | inhibition at 0.54 µM [4] [%] | LD50 [5] [mg/kg] | pressure decrease (SHR; 5 mg/kg p.o.) [mm Hg] | Max. changes in systolic pressure (SHR) [mmHg] | also measured
COc1cc2c(cc1OC)[C@H](O)[C@H](N1CCC(n3c(=O)[nH]c4ccccc43)CC1)C2 (relative stereo) [MG 28401, cis 2-[4-(2-Oxo-1-benzimidazolinyl)-1-piperidinil]-5,6-dimethoxy-1-indanol] | -40.2 | about 3 times | 3.5 | 92 | 54.5 | 0 | 0 | 81 | 41 | > 2000 | 37.6 | -67 | affinity toward serotoninergic 2 (5-HT2) receptors (in words) [4]: moderate affinity
COc1cc2c(cc1OC)[C@H](O)[C@@H](N1CCC(n3c(=O)[nH]c4ccccc43)CC1)C2 (relative stereo) [MG 28427, trans 2-[4-(2-Oxo-1-benzimidazolinyl)-1-piperidinil]-5,6-dimethoxy-1-indanol] | -41.2 | about 3 times | – | – | – | – | – | – | – | > 2000 | 26.2 | -47 | pressure decrease (SHR; 1 mg/kg p.o.): 17.4 mm Hg
COc1cc2c(c(OC)c1OC)C[C@@H](N1CCC(n3c(=O)[nH]c4ccccc43)CC1)[C@H]2O (relative stereo) [MG 38007, cis 2-[4-(2-Oxo-2-benzimidazolinyl)-1-piperidinyl]-4,5,6-trimethoxy-1-indanol] | -37.4 | – | 10 | 96 | 75 | 32.5 | 3.5 | 93 | 49 | – | 20 | -61.4 | affinity toward serotoninergic 2 (5-HT2) receptors (in words) [4]: moderate affinity
COc1cc2c(c(OC)c1OC)C[C@H](N1CCC(n3c(=O)[nH]c4ccccc43)CC1)[C@H]2O (relative stereo) [MG 38019, trans 2-[4-(2-Oxo-2-benzimidazolinyl)-1-piperidinyl]-4,5,6-trimethoxy-1-indanol] | -23 | – | – | 82 | 35.5 | 6.7 | 0 | 33 | 10 | > 1000 | – | -56 | –
COc1cc2c(cc1OC)[C@H](O)[C@@H](N1CCC(n3c(=O)[nH]c4ccccc43)CC1)CC2 (relative stereo) [MG 38041, trans 2-[4-(2-Oxo-1-benzimidazolinyl)-1-piperidinyl]-6,7-dimethoxy-1-tetralol] | – | about 9 times | 0.31 | – | – | – | – | – | – | > 500 | – | – | CHOL, % difference from control (Normolipemic rats [6]; 0.370 mM/kg po × 4 days): ~ 0%; CHOL-HDL, % difference from control (Normolipemic rats [6]; 0.370 mM/kg po × 4 days): +53.1%; Liver weight, % difference from control (Normolipemic rats [6]; 0.370 mM/kg po × 4 days): +2.0%; TG, % difference from control (Normolipemic rats [6]; 0.370 mM/kg po × 4 days): -44.2%; effect on TG and CHOL-HDL (in words) (Normolipemic rats [6]; oral, 4 days): decrease TG and increase CHOL-HDL; Gasping time, % diff. from control (gasping time in mice): +56.2%
COc1cc2c(cc1OC)[C@H](O)[C@H](N1CCC(n3c(=O)[nH]c4ccccc43)CC1)CC2 (relative stereo) [MG 38060, cis-2-[4-(2-Oxo-1-benzimidazolinyl)-1-piperidinyl]-6,7-dimethoxy-1-tetralol] | -25.5 | about 9 times | 1.28 | – | – | – | – | – | – | – | – | -47 | –
CCOC(=O)C(C)(C)Oc1ccc(Cl)cc1 [Clofibrate, reference compound] | – | – | – | – | – | – | – | – | – | – | – | – | CHOL, % difference from control (Normolipemic rats [6]; 0.820 mM/kg po × 4 days): -15.0%; CHOL-HDL, % difference from control (Normolipemic rats [6]; 0.820 mM/kg po × 4 days): 0%; Liver weight, % difference from control (Normolipemic rats [6]; 0.820 mM/kg po × 4 days): +19.5%; TG, % difference from control (Normolipemic rats [6]; 0.820 mM/kg po × 4 days): -40.0%; effect on liver, as known (in words) (Normolipemic rats [7]): signicative liver increase
CC(NCCCCc1ccccc1)C(O)c1ccc2c(c1)CCS2 (stereo not drawn) [Tibalosine, reference compound] | – | – | – | – | – | – | – | – | – | – | 13 | – | IC50 [8]: 0.4 µM; IC50 [9]: 1000 µM; anti-hypertensive activity (in words) (SHR; p.o., Tibalosine at 5 mg/kg, Table 1 compounds at 15 mg/kg): poorly active
COc1ccccc1N1CCN(CCCNc2cc(=O)n(C)c(=O)n2C)CC1 [Urapidil] | – | – | – | – | – | – | – | – | – | – | – | – | IC50 [8]: 0.8 µM; IC50 [9]: 14 µM
